# Assay results published in article PMC9911399, “Two distinct binding modes provide the RNA-binding protein RbFox with extraordinary sequence specificity”.
# Residue numbers refer to the chain shown, from its start. Some of the results follow.
# T1: RBFOX1 RRM (Homo sapiens, UniProt Q9NWB1 109-208)
# T1 sequence: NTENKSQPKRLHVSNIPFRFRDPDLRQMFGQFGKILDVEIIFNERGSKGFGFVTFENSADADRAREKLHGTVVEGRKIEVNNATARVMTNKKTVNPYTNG
# B1: UUGGUCU (DNA:RNA)
# RNA: GGGAGACCGGAAUUCAGAUUGUCCUUGGUCUUUAAAUCCCGUCGUAGCCACCA
# DNA 1: CAATCTGAATTCCGGTCTCCC
# DNA 2: TGGTGGCTACGACGGGATT
# B2: GUACGUA (DNA:RNA)
# RNA: B1 RNA with U25G, G27A, G28C, U29G, C30U, U31A
# DNA 1: CAATCTGAATTCCGGTCTCCC
# DNA 2: TGGTGGCTACGACGGGATT
# B3: AAUGUUG (DNA:RNA)
# RNA: B1 RNA with U25A, U26A, G27U, C30U, U31G
# DNA 1: CAATCTGAATTCCGGTCTCCC
# DNA 2: TGGTGGCTACGACGGGATT
# B4: GAGUUGU (DNA:RNA)
# RNA: B1 RNA with U25G, U26A, G28U, C30G
# DNA 1: CAATCTGAATTCCGGTCTCCC
# DNA 2: TGGTGGCTACGACGGGATT
# B5: UAAAGGC (DNA:RNA)
# RNA: B1 RNA with U26A, G27A, G28A, U29G, C30G, U31C
# DNA 1: CAATCTGAATTCCGGTCTCCC
# DNA 2: TGGTGGCTACGACGGGATT
# B6: GACAGGC (DNA:RNA)
# RNA: GGGAGACCGGAAUUCAGAUUGUCCGACAGGCUUAAAUCCCGUCGUAGCCACCA
# DNA 1: CAATCTGAATTCCGGTCTCCC
# DNA 2: TGGTGGCTACGACGGGATT
# B7: AAGAGUC (DNA:RNA)
# RNA: B6 RNA with G25A, C27G, G30U
# DNA 1: CAATCTGAATTCCGGTCTCCC
# DNA 2: TGGTGGCTACGACGGGATT
# B8: AGCAGCG (DNA:RNA)
# RNA: B6 RNA with G25A, A26G, G30C, C31G
# DNA 1: CAATCTGAATTCCGGTCTCCC
# DNA 2: TGGTGGCTACGACGGGATT
# B9: UCACACA (DNA:RNA)
# RNA: B1 RNA with U26C, G27A, G28C, U29A, U31A
# DNA 1: CAATCTGAATTCCGGTCTCCC
# DNA 2: TGGTGGCTACGACGGGATT
# B10: GAAUGGU (DNA:RNA)
# RNA: B6 RNA with C27A, A28U, C31U
# DNA 1: CAATCTGAATTCCGGTCTCCC
# DNA 2: TGGTGGCTACGACGGGATT
# B11: UCAGAGC (DNA:RNA)
# RNA: B6 RNA with G25U, A26C, C27A, A28G, G29A
# DNA 1: CAATCTGAATTCCGGTCTCCC
# DNA 2: TGGTGGCTACGACGGGATT
# B12: UUCACGG (DNA:RNA)
# RNA: B6 RNA with G25U, A26U, G29C, C31G
# DNA 1: CAATCTGAATTCCGGTCTCCC
# DNA 2: TGGTGGCTACGACGGGATT
# B13: AAGCGGA (DNA:RNA)
# RNA: B6 RNA with G25A, C27G, A28C, C31A
# DNA 1: CAATCTGAATTCCGGTCTCCC
# DNA 2: TGGTGGCTACGACGGGATT
# B14: CAUGACA (DNA:RNA)
# RNA: B1 RNA with U25C, U26A, G27U, U29A, U31A
# DNA 1: CAATCTGAATTCCGGTCTCCC
# DNA 2: TGGTGGCTACGACGGGATT
# B15: AGUCCAU (DNA:RNA)
# RNA: B1 RNA with U25A, U26G, G27U, G28C, U29C, C30A
# DNA 1: CAATCTGAATTCCGGTCTCCC
# DNA 2: TGGTGGCTACGACGGGATT
# B16: UUUCUAG (DNA:RNA)
# RNA: B1 RNA with G27U, G28C, C30A, U31G
# DNA 1: CAATCTGAATTCCGGTCTCCC
# DNA 2: TGGTGGCTACGACGGGATT
# B17: UUAGUAG (DNA:RNA)
# RNA: B1 RNA with G27A, C30A, U31G
# DNA 1: CAATCTGAATTCCGGTCTCCC
# DNA 2: TGGTGGCTACGACGGGATT
# B18: UUGAUAA (DNA:RNA)
# RNA: B1 RNA with G28A, C30A, U31A
# DNA 1: CAATCTGAATTCCGGTCTCCC
# DNA 2: TGGTGGCTACGACGGGATT
# B19: GAGAGUU (DNA:RNA)
# RNA: B6 RNA with C27G, G30U, C31U
# DNA 1: CAATCTGAATTCCGGTCTCCC
# DNA 2: TGGTGGCTACGACGGGATT
# B20: AAUAGCU (DNA:RNA)
# RNA: B6 RNA with G25A, C27U, G30C, C31U
# DNA 1: CAATCTGAATTCCGGTCTCCC
# DNA 2: TGGTGGCTACGACGGGATT
# Molecular target: T1, RBFOX1 RRM
# Experiment: EMSA; HiTS-Eq, 1 nM pool, 10 min; buffer printed only for the single-RNA assays: 10 mM Tris pH 7.5, 150 mM NaCl, 3.4 mM EDTA, 0.001% NP-40, 30 C
# Conditions: tags: His6 N-terminal (pET28a); label: 5' 32P
# How it was run: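 Relative association constants, normalised to the cognate motif, were derived by comparing read counts of each RNA species with those of the control reaction. The RNA sequenced was the free fraction, separated by 8% native PAGE after a 10 min equilibration in 50 µL of 1 nM 5′-radiolabelled RNA (7 randomized nucleotides) with increasing concentrations of purified wild-type or mutant RbFox RRM.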
row,Binder,binding signal
1,B1,0.0285 KA relative to UGCAUGU
2,B2,0.0085 KA relative to UGCAUGU
3,B3,0.0211 KA relative to UGCAUGU
4,B4,0.0179 KA relative to UGCAUGU
5,B5,0.00813 KA relative to UGCAUGU
6,B6,0.00819 KA relative to UGCAUGU
7,B7,0.00555 KA relative to UGCAUGU
8,B8,0.0104 KA relative to UGCAUGU
9,B9,0.000703 KA relative to UGCAUGU
10,B10,0.0193 KA relative to UGCAUGU
11,B11,0.0101 KA relative to UGCAUGU
12,B12,0.00575 KA relative to UGCAUGU
13,B13,0.00381 KA relative to UGCAUGU
14,B14,0.00432 KA relative to UGCAUGU
15,B15,0.00403 KA relative to UGCAUGU
16,B16,0.0155 KA relative to UGCAUGU
17,B17,0.0154 KA relative to UGCAUGU
18,B18,0.00707 KA relative to UGCAUGU
19,B19,0.0155 KA relative to UGCAUGU
20,B20,0.00475 KA relative to UGCAUGU
